Values marked as one replicate rest on one cluster of the flow cell; about a third of the high ones do not repeat.
The sequences below were run on ATP (assay: switch fluorescence ratio, 500 uM ATP over buffer (Cy3 cluster intensity, sum of 5 cycles each) (fold (ratio)); higher = stronger signal-on switching upon ATP binding; sequences stand for … in TCGTCGGCAGCGTCAGATGTGTATAAGAGACAGTTTTTTTTTTTTTTTTTTTTTTTTT…TC). Details: aptamer strand: ATP DNA aptamer (quencher-CACCTGGGGGAGTATTGCGGAGGAAGG + anchor), 100 nM annealed; ATP concentration: 500 uM; one replicate.
In short: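 Imaging in selection buffer was followed by imaging after 15 min with 500 uM ATP at 22 °C, for Cy3-labelled switching-strand clusters annealed to 100 nM quencher-labelled ATP aptamer on a modified Illumina MiSeq flow-cell. Five of these buffer/ATP cycles ran, separated by NaOH stripping and re-annealing. The fluorescence ratio per cluster is summed target-cycle over summed buffer-cycle Cy3 intensity, averaged per switch-domain sequence; clusters outside 100-1000 RFU were removed.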
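Note: ATP exposure 15 min at 22 °C before imaging.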

Sequence | switch fluorescence ratio
ACGTGGGCAG | 0.975
ACGTGGTACG | 1.06
ACGTGTGGTG | 1.02
ACGTTCCGAA | 1.38
ACGTTGCTCC | 1.95
ACGTTTACGT | 1
ACGTTTCACA | 1.34
ACGTTTCGAA | 0.978
ACGTTTCGAT | 0.976
ACGTTTGGCG | 0.945
ACTAAAACAA | 1.07
ACTAAAAGTT | 1.01
ACTAAAGACC | 1.1
ACTAAAGTCA | 1.06
ACTAAATCC | 0.971
ACTAAGAACT | 1.05
ACTAAGGCTT | 1.1
ACTAAGGTAG | 1.01
ACTAAGTGAT | 1.03
ACTAAGTGTA | 0.97
ACTAATGCCC | 0.98
ACTACAGGCG | 1.12
ACTACCACTG | 1.36
ACTACCAGGG | 1.04
ACTACCCAG | 1.11

Sequence | switch fluorescence ratio
ACTACCGATC | 1.45
ACTACCGCGC | 2.04
ACTACCGGGG | 1.6
ACTACCGGTT | 1.05
ACTACGTTCC | 2.17
ACTACTATTT | 0.98
ACTAGAAGCG | 1.01
ACTAGGAACA | 1.05
ACTAGGGCGC | 0.952
ACTAGGGGAA | 1.1
ACTAGTTGAG | 1.01
ACTATAAAG | 1.05
ACTATACGGT | 1.43
ACTATACTTT | 1.25
ACTATAGGCA | 1.03
ACTATATATC | 1.04
ACTATCCGCA | 1.18
ACTATCTTGT | 0.982
ACTATGCCCT | 1.02
ACTATGGGCA | 0.965
ACTATTAAA | 1.01
ACTATTGATT | 1.02
ACTATTGCTT | 1.07
ACTCAATCGA | 1.02
ACTCACAGCT | 1.42

Sequence | switch fluorescence ratio
ACTCACCCG | 2.41
ACTCACTGTT | 1.17
ACTCAGAAGA | 1.04
ACTCAGCTC | 1.64
ACTCCAGTTA | 1.14
ACTCCCGAT | 1.03
ACTCCGGGTT | 2.18
ACTCCTGACG | 0.989
ACTCCTTAC | 3.21
ACTCGCATCT | 1.77
ACTCGCTGAT | 1.19
ACTCGGCGG | 1.02
ACTCTACACG | 1.34
ACTCTCAGCT | 1.08
ACTCTCATCC | 1.05
ACTCTCGCTG | 1.62
ACTCTCGGTT | 1.03
ACTCTTGCGA | 1.9
ACTCTTTATT | 1.01
ACTGAACCTA | 1.18
ACTGACGCGA | 1.16
ACTGAGAACC | 1.04
ACTGAGGGAG | 1.09
ACTGATTGCT | 0.971
ACTGCAACCG | 1.25

Sequence | switch fluorescence ratio
ACTGCAGACC | 1.18
ACTGCAGGGT | 0.962
ACTGCCACGT | 1.26
ACTGCCATG | 1.1
ACTGCCTCGG | 1.27
ACTGCGAAGC | 1.04
ACTGCGCTT | 1.6
ACTGCGGCCG | 1.02
ACTGCGGTTC | 1.13
ACTGCTTGCA | 0.988
ACTGCTTGGC | 1.03
ACTGGAAT | 0.978
ACTGGACGGC | 1.46
ACTGGAGATT | 1
ACTGGAGGAA | 1.84
ACTGGCGAGG | 1.02
ACTGGGAAGA | 0.997
ACTGGGAGTC | 0.998
ACTGGGATG | 0.955
ACTGGGCCTA | 1.01
ACTGGGTAG | 0.992
ACTGGTTTTA | 1.03
ACTGTAGTGC | 1.22
ACTGTATGGA | 1.16
ACTGTTACAT | 1.25

— the supplement of paper PMC10126150
